Sequences with one replicate were seen in a single cluster, so their values are uncertain.
Tested on: ATP
Experiment: switch fluorescence ratio, 500 uM ATP over buffer (Cy3 cluster intensity, sum of 5 cycles each) (fold (ratio)); higher = stronger signal-on switching upon ATP binding; sequences stand for … in TCGTCGGCAGCGTCAGATGTGTATAAGAGACAGTTTTTTTTTTTTTTTTTTTTTTTTT…TC
Details: aptamer strand: ATP DNA aptamer (quencher-CACCTGGGGGAGTATTGCGGAGGAAGG + anchor), 100 nM annealed; ATP concentration: 500 uM; one replicate
Summary of the method: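 Cy3-labelled switching-strand clusters on a modified Illumina MiSeq flow-cell were annealed to 100 nM quencher-labelled ATP aptamer and imaged first in selection buffer, then after 15 min with 500 uM ATP at 22 °C. NaOH stripping and re-annealing separated each of five buffer/ATP cycles, and clusters outside 100-1000 RFU were excluded. The fluorescence ratio sums target-cycle Cy3 intensity over buffer-cycle Cy3 intensity per cluster and averages it per switch-domain sequence.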
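Also: ATP exposure 15 min at 22 °C before imaging.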

Sequence | switch fluorescence ratio
ATCGTTGAAA | 1
AACCTGGGCG | 1.06
AACGGTTTGA | 0.966
TTTGGAAATC | 0.942
AAAATAAAC | 1.03
CGTTGTTAAA | 0.998
CACGGCGAAC | 1.56
GGAACAGGTC | 1.03
TAGGCAATTC | 2.68
GATTTTGTAT | 0.957
TAATGGAGAG | 1.01
CTCGAGCAAG | 2.33
TCAGCTGCG | 0.941
AATCTATAGT | 0.992
AGACTCGGCC | 1.02
AAACGGCCGT | 0.99
CCCTACCCGA | 1.06
GGTTTGTGAG | 0.968
TTCGTTTGGC | 1.1
AGTAGGGGCA | 0.999
TGTGGGAG | 0.973
CCGGTTTACA | 1.07
GAATGGGTGT | 1.01

Sequence | switch fluorescence ratio
AGGTAGACGT | 1.02
TTTCTTGACG | 1.02
TGTTGGTGCG | 1.01
ATGGGCGCTC | 1.03
AACAACATGC | 1.06
TCGGTTGCCT | 0.994
TAGTTTATCG | 0.965
GGATCACGGA | 1.02
AGCGGGGTAG | 0.977
TTATAGTAAG | 1.01
TTTCACGAGT | 1.08
AATTGCTCCC | 1.25
TGAGCATGAG | 1.06
ATATACCTCT | 0.986
TTGACCCTTA | 1.03
GGCTTGTGGG | 1.01
ACTCCCGGTA | 1.53
CTTTAAGAGC | 1.13
CGGACTCGGG | 0.962
CGTTACGGA | 1.04
TCACATTGGC | 0.974
TGCATATTTA | 1
CTCAGATGCT | 1.01

Sequence | switch fluorescence ratio
TGTCGTCCAT | 0.968
GAGATGACAT | 1.02
TATTACTTAT | 1.03
AGAGGATCG | 1.15
CGTAAGAG | 1.04
ACTAACTAGA | 1.09
GGGATTTTCA | 1.03
AGTTATGTCC | 0.996
CGAAAGGATC | 1.03
TAATCGTCAA | 1.52
GGCTCATGAT | 1.03
AGGGTCTGAT | 0.998
ACGTTAAGGT | 1.07
TAATTGCCTA | 0.99
CCCTGCCGTC | 0.955
TAGGCTGCTT | 0.964
TTGCGTTGAA | 1.01
CATCGAGGGC | 1.02
GATTCAATGT | 1.01
TCCCTCACGG | 1.34
GGCTCCGGTG | 1.21
CGACATTGA | 0.942
GGTAACAGCA | 1.01

Sequence | switch fluorescence ratio
TAGACATTCC | 1.68
AGAGTTTGTA | 1.01
TGAATAAACC | 1.06
GTTATTTCTT | 1.02
TATCCTGTT | 1
AAATCGATAC | 1.28
CGATTACGGC | 1.04
TTCTGGGTTG | 0.981
GTTGTAATTT | 1
TTTCAGATTG | 0.975
TATAAGATGA | 1.01
AGTTGAATAG | 1.03
TAAGCGTACC | 1.09
TCCACCCGTG | 1.05
CAAAGATGCT | 1.4
ATCGGCACCG | 1
GCCAGATTAC | 1.06
TTATCAATG | 1
AAACGTTTTC | 0.992
CGCGAAAAGG | 1.05
TTCGAGTGTG | 1.01
CCCATGTGCT | 1.73
GATTCTGAAT | 0.953

Sequence | switch fluorescence ratio
GGCATCCCGC | 0.998
TGTGTAGGCC | 0.999
CCAGTTCAGT | 0.998
TATCGATTGA | 1.01
TAGCGGCTAA | 1
GTGCCTCCAA | 1.14
CCTACGAAAG | 2.88
AAGATCTCAC | 1.03
CTAAGGGCT | 0.975
GGTACGGAAG | 1.05
CTCGAGCCTA | 1.04
AAGGAAAGAA | 1.03
TGGCGGCTAC | 1.09
CGTGTAGCTA | 1.05
GAGAAGTTGG | 0.979
TAATCGATG | 0.945
TGACAACCG | 0.995
AGAGAGTATA | 0.977
CAATGAGTTG | 1.02
TTTTTCCAGC | 0.993
AAAATGGCAA | 1.13
TCGTTCAATA | 1.2
GCGGTTCTCG | 0.983

Sequence | switch fluorescence ratio
GGTGCGGCAC | 0.988
GAAGCTGCT | 0.874
CAGCACGTCC | 1.04
CTTTTAGGTT | 0.946
TCCAGATCTC | 0.978
TCACACGGCC | 1.09
CCTTGTATGT | 1.03
TTTCAAGGTA | 1.01
AGCACATATG | 0.99
CCCGGTTTTC | 1.65
GCTGGTCACA | 1.01
GAAAAGCTGT | 0.952
GTGGTTATTG | 0.997
ATAACGCTCC | 1.17
GGTAAATAAA | 1.01
GGAGCCTTTA | 1
TTCCAACGGT | 1.01
CTAAGTCAGG | 1.04
GAAGTACCCG | 1.11
TCAATCACAT | 1.01
CAATCTCAT | 2.05
CGCCTCCACA | 1.76
GACGCGGGCT | 1.1

Sequence | switch fluorescence ratio
ACACGGTCGA | 1.03
AGGCCCTGGC | 1.06
AAAATTCAGA | 0.948
TGGACAGGG | 1
TATAAGTATG | 1.03
CTGATGATCC | 1.04
TCTTGGATTT | 1.01
ATCTAGCCAG | 0.983
TCGGTTCGAC | 1.03
GAGTGAGATT | 1.01
AGCAACACG | 1.55
TTGCCCCAGT | 1.01
CTGGTAAACC | 1.05
TGGTCAACGG | 0.983
GACCGGTAAT | 0.988
CGCAACACTT | 4.26
CGTAACTGCA | 1.04
TGACGCTAAG | 1.06
ATAGCTTAAT | 1.01
